Values joined by “and” are separate entries in the source; they are usually repeats but may differ in a detail not shown here. Equal entries are not always repeated. In all, about 16,000 compounds went through this assay and about 40 (0.2%) were called active. Roughly 1% stayed inconclusive and do not appear here. The call rests on the fitted dose curve; in most records, active means well fitted activation curve with a large enough effect; inconclusive means small, poorly fitted or top-dose-only effect, or another doubt; inactive means no such curve, though single readings can be large or run the other way. The list shows a part of the results.
target: Rap guanine nucleotide exchange factor 4 (Homo sapiens) (UniProt Q8WZA2); experiment: Validation qHTS for agonist of cAMP-regulated guanine nucleotide exchange factor 4 (EPAC2); settings: EPAC2 Rap1B BODIPY-GDP exchange, fluorescence; activation: active compounds read high;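 further: exchange makes BODIPY-GDP fluorescence drop when released from Rap1B; series mostly up to about 150 µM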
How it was run: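 Fluorescent exchange assay: 100 nM EPAC2 with 250 nM RAP1B-BODIPY-GDP and 50 uM GDP; compound added, 5 min at room temperature, then read (ex 480/em 540 nm) every 5 min for 30 min. Normalized to 6.5 mM cAMP agonist control.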
On the % scale 0 is the no-effect control and ±100 the full control effect.

Chain of UniProt Q8WZA2 (Q8WZA2 whole entry, looked up): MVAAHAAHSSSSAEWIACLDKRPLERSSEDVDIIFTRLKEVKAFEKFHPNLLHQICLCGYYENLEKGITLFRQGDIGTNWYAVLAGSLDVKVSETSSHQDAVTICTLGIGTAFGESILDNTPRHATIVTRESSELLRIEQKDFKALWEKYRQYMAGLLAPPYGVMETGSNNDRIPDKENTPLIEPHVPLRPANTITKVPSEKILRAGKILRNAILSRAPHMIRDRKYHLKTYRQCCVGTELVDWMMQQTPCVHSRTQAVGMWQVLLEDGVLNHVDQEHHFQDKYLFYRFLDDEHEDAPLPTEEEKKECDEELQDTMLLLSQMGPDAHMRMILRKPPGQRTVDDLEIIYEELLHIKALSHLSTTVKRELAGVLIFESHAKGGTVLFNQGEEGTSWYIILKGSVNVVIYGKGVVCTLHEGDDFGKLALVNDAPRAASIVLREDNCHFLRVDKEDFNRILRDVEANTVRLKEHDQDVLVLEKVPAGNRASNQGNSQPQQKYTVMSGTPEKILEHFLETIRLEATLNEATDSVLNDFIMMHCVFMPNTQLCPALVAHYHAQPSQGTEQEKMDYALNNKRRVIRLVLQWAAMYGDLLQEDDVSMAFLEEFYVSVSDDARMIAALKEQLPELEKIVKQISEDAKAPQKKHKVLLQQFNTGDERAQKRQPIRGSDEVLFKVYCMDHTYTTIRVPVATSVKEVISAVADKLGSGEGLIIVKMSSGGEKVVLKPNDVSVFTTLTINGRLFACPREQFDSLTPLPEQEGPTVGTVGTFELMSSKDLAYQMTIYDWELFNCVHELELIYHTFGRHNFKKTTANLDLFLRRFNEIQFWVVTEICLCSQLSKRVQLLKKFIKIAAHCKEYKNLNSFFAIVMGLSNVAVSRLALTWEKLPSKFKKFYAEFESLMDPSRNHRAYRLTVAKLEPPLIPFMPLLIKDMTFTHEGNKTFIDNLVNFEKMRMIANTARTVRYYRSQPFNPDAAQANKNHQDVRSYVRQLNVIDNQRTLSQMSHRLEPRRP

activation, inactive:
COc1cccc(Cn2c(=O)c(C)nc3cnc(Oc4cccc(Cl)c4)nc32)c1 -8.42%, O=C(Nc1cccc(F)c1)N1CC2(CCN(C(=O)c3csnn3)CC2)C1 -0.619%, O=C(NCC1Cc2cccc(-c3ncccn3)c2O1)C1CCOC1 (stereo not given) -12%, O=C(CCn1cncn1)NCC1Cc2cc(-c3ccsc3)cc(Cl)c2O1 (stereo not given) 13.5%, Cc1oc(-c2ccccc2NC(=O)C2CCC2)nc1CNC(=O)c1cccc(C(F)(F)F)c1 4.54%, Cc1ccccc1Cc1nc2cccnc2n1C1CCN(C(=O)CC2NC(=O)c3ccccc32)CC1 (stereo not given) -10.3%, FC(F)(F)c1ccccc1-c1nc(-n2ccnc2)c2ccccc2n1 -10%, C[C@@H]1[C@H](c2ccccc2)OCCS(=O)(=O)N1Cc1ccccc1 -5.52%, COC(=O)N1CCC2(CCN(Cc3ccc(C#N)cc3)CC2)CC1 -21.7%, COc1c(Cl)ccc(Cl)c1C(=O)O -11.2%, CC1CN(c2cc3c(cc2F)c(=O)c(C(=O)O)cn3-c2ccc(F)cc2F)CCN1 (stereo not given) -22.2%, CCNc1ncc2nc(-c3cccs3)c(=O)n(-c3ccc(OC)cc3)c2n1 9.82%, CCCCNC(=O)NS(=O)(=O)c1ccc(N)cc1 -0.617%, CCOC(=O)/C=C(C)/C=C/C=C(C)/C=C/c1c(C)cc(OC)c(C)c1C 27.1%, C#CCN(Cc1ccccc1)S(=O)(=O)C=C -30.3%, C=C[C@@](C)(O)CC[C@@H]1[C@@]2(C)CCCC(C)(C)[C@@H]2CC[C@@]1(C)O -34.1%, O=C(CCBr)N1CCN(C(=O)CCBr)CC1 -12.2%, COc1cc2c(cc1OC)C(C(C(=O)N(CCc1ccc(OC)c(OC)c1OC)CCc1ccc(OC)c(OC)c1OC)c1ccccc1)=NCC2 (stereo not given) 6.78%, Cc1noc(C)c1-c1nc(NCc2cccs2)c2ccccc2n1 2.53%, CCCCC1C(=O)N(c2ccccc2)N(c2ccc(O)cc2)C1=O (stereo not given) -24.3% and 9.35%, N[C@H]1CONC1=O -33.6%, Cc1cnc(-n2ncc(C(=O)NCCc3cccnc3)c2C)nc1-c1ccc(F)cc1 -9.87%, Cc1cc(O)c2c(c1O)C(=O)c1c(O)cc(C)c(O)c1C2=O -3.45%, COc1cc(=O)n2c(c1C(=O)NCc1cccc(F)c1)CCN(Cc1cccnc1)CC2 -8.31%, COc1ccccc1CNc1ccnc(-c2ccoc2)n1 -10.4%

Source: PubChem BioAssay AID1645887 (National Center for Advancing Translational Sciences (NCATS), 2021)
